For assay [1], the target named is N-terminal His6GB1-tagged PI4KB (residues 423-522 removed) (human) (UniProt Q9UBF8). Briefly: pull-down; Ni-NTA sepharose beads, one partner with N-terminal His6GB1 tag immobilised, both partners 1 μM in 200 μL 30 mM Tris pH 8, 200 mM NaCl, 10 mM imidazole, 1 mM TCEP; 30 min at 4 °C; SDS gels stained with Coomassie Blue; both purified.
Assay [2] addresses T1, His6GB1-tagged PI4KB I43A mutant (human) (UniProt Q9UBF8).
T1 sequence: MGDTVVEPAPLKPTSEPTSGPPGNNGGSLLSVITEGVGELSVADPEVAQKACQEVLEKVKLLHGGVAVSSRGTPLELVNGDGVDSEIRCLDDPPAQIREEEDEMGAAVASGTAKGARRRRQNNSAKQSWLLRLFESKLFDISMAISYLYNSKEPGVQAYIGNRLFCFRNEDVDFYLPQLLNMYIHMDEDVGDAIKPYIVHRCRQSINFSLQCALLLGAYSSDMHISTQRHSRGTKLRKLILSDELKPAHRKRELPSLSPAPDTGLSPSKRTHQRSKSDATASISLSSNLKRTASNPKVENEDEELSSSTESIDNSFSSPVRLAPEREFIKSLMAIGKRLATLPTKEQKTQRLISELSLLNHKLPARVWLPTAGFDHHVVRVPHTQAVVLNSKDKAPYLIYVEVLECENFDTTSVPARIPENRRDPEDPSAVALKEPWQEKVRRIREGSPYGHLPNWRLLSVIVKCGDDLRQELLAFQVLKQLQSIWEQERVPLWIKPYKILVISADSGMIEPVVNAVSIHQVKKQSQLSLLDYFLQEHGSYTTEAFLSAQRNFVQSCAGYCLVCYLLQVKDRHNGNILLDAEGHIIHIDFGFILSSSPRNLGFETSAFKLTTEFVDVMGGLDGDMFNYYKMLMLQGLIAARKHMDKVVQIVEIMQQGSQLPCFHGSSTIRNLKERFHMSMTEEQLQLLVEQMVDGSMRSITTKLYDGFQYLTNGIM
Described as above.

By UniProt entry, the sequences of proteins in these tests, tags left out. Where a name states a change or a piece, a line headed by the entry shows the natural chain unless it says otherwise.
UniProt Q9H3P7: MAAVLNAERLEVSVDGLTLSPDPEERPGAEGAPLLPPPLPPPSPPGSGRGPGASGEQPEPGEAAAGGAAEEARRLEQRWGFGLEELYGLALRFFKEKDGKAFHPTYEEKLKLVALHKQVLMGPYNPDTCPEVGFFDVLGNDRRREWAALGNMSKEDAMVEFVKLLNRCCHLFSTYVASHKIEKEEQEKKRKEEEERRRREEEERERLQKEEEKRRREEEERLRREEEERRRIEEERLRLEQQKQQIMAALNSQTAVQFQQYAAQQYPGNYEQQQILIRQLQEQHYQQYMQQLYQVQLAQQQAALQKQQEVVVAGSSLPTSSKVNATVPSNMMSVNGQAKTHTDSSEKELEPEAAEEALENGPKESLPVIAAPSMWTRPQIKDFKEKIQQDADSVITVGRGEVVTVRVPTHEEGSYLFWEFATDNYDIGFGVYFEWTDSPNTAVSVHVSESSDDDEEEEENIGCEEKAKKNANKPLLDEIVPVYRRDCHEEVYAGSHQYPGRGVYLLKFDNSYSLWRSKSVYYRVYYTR

Assay [3] has as its target T2, His6GB1-tagged PI4KB L56A mutant (human) (UniProt Q9UBF8).
T2 sequence: T1 sequence with A43I, L56A
Described as above.

The target in assay [4] is T3, His6GB1-tagged PI4KB V55A mutant (human) (UniProt Q9UBF8).
T3 sequence: T1 sequence with A43I, V55A
Described as above.

Assay [5] concerns the target ACBD3 Q domain (residues 241-308) (human) (UniProt Q9H3P7). Briefly: AUC; sedimentation velocity, ACBD3 Q domain and PI4KB N-terminal region, 35 μM (both proteins); 10 mM Tris pH 8, 200 mM NaCl, 3 mM β-mercaptoethanol, 20 °C, 48000 rpm; c(s) model; both purified.
Assay [6] has as its target PI4KB, untagged (residues 423-522 removed) (human) (UniProt Q9UBF8). The experiment in a line: AUC; sedimentation velocity, full-length proteins alone and as complex, 5 μM (both proteins); 10 mM Tris pH 8, 200 mM NaCl, 3 mM β-mercaptoethanol, 20 °C, 48000 rpm; c(s) model; both purified.

Binding data for 7 substances are collected here from publication PMC4806292.

Residue numbers refer to the chain shown, from its start. No constants are given. Whether binding was seen depends on the method and setting. Some entries that bind do so weakly or less than the wild type. For part of these data: Tags and fused reporters may be left off the sequences shown.

As for “ACBD3 H284A mutant, untagged (from UniProt Q9H3P7 1-528)”, the binding result in assay [1] was “no binding (tested: 1 μM)”.
With “Acyl-coenzyme A binding domain containing protein 3 (ACBD3), full length, untagged (from UniProt Q9H3P7 1-528)”, the binding entry in assay [2], in assay [3] and in assay [4] was “no binding (tested: 1 μM)” throughout.
Take “ACBD3 Q domain (residues 241-308) (from UniProt Q9H3P7 241-308) (domain or fragment)”: the binding entry in assay [5] is on record as “no binding (tested: 35 μM)”.
Turning to “ACBD3 F258A mutant, untagged (from UniProt Q9H3P7 1-528)”, in assay [1], the binding result is on record as “no binding (tested: 1 μM)”.
As for “PI4KB, untagged (residues 423-522 removed) (from UniProt Q9UBF8 1-816) (enzyme)”, the binding entry in assay [6] is reported as “no binding (tested: 5 μM)”.
On to “ACBD3 Y288A mutant, untagged (from UniProt Q9H3P7 1-528)”, for which the binding result in assay [1] is on record as “no binding (tested: 1 μM)”.
For “ACBD3 Y285A mutant, untagged (from UniProt Q9H3P7 1-528)”, the binding entry in assay [1] was “binds weakly”.
